Source: the supplement of paper PMC11417369
Some of the results follow.

tested on: PfHDP1 homeodomain (GST-tagged); test: gcPBM binding intensity (ln(normalized median fluorescence intensity)); higher = stronger DNA binding
Method in brief: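 After 1 h on an Agilent 4 × 180k array of primer-extended double-stranded 36-bp intergenic genomic probes and negative controls, bound GST-tagged P. falciparum DNA-binding domains were detected with Alexa488 anti-GST antibody and scanned at 488 nm. The domains had been expressed in E. coli, and binding took place in 1× PBS with 1% milk, 0.2 mg/ml BSA, 0.5% salmon testes DNA and 0.03% Triton X-100. Binding intensity is the highest Masliner-normalised natural-log median intensity across replicate spots of either probe orientation.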

Sequence	gcPBM binding intensity (ln)
TTTTATTTAACTCATAATTTTTTAAAAAACAATTAT [XGTACX_negctrl_site19]	6.37
TTTTTTTTTTTTTTGGGTACATAATAATAACAAGTG [XGTACX_site1034]	6.52
AATGACCATTTTTAAAATTACAAATACATACAACTG [TGCATGCA_negctrl_site420]	6.55
AATGTCAATTTTAATAGTACACAAATATATATATAT [XGTACX_site521]	8.96
AAGTATTATTATAAGACACACATGTATTTAAGTATA [CACACA_site4922]	6.4
AATACATATTCAAAGGTGCAAAATAAAAATATACAT [GTGCAC_site9743]	9.87
TTATAATAAGATTGTTGTACTTATATTCCTTCTATA [XGTACX_site3173]	6.36
TCGTTTCATATTTATCATGAGATAATCACACGAACA [TGCATGCA_negctrl_site497]	6.32
TGTTTTGTATATATAGCATGCAGTAAGGGAAAAAAA [TGCATGCA_site652]	7.53
TAGTTATAAGAGTTACAAAGAATACCGGAAATATAG [CACACA_negctrl_site1829]	6.78
GTGTGCTTTTTACGAGTGCAAGTATTTTGGTGGTTA [GTGCAC_site9496]	7.89
GTACACATATAATATACACACAACAAATATGCACAT [CACACA_site1010]	10.6
TTAAGAATATCTACATGTACATACCAAAGAAATACA [XGTACX_site3125]	6.57
TTTTATTCCTATTTATTTATATTTTTGTCTTATATC [CACACA_negctrl_site125]	6.36
ATGAACAAAATGTAATGTACGAATAATTATTCATAT [XGTACX_site4812]	6.62
GGAATAATATAAAACACACACATAAATATAAATATA [CACACA_site3376]	6.77
TAATTTTTTTTTTTTTTTTTTTTTTTTTTTTTCCTT [CACACA_negctrl_site1095]	5.85
TAATTTTTATTTATAATAATATATGACATATATCCA [XGTACX_negctrl_site359]	6.24
AAAAAAAAGTTCTACACACACAAAAAAATATTTTTT [CACACA_site2309]	6.5

Sequence	gcPBM binding intensity (ln)
TATAGACAAACACATACATGCATACATACATACATA [TGCATGCA_site273]	6.69
TCTGTGCACGCATGAAGTACAAAAAAGGTTTCCAGT [XGTACX_site5049]	10.3
CTATATACTAAATGCACACTTATATATTTATATATA [CACACA_site2454]	10.4
TATATTTTTTTAATATGTACATATATATATAAAACA [XGTACX_site2171]	6.42
ATGATCATAAGACACACACACAAAAAAAAAAAAAAA [CACACA_site6936]	6.49
CATATATATATATATTGTACAAGATTGTTTTTTTAT [XGTACX_site3913]	6.84
TTTAAAAAAATATATACACACATATATATATATATA [CACACA_site617]	9.36
AATTAACAAAGACACACACACACACGCACAAAAAAA [CACACA_site6388]	7.33
CTCCATATGAAACACACACACAAATGAAAAAAATAT [CACACA_site3018]	7.01
ATAGAAATAAAATAAAATAAAAAAAAAATAATGAAA [CACACA_negctrl_site1565]	6.49
TGAATTATAAATTATAGTACTTTATAATATGAACAT [XGTACX_site2317]	6.42
ATATATAATAAATACACACACATGTATTTATAAATA [CACACA_site5135]	6.8
ATATAAATAAATTAGTGAAAAAAAAAAAATTTTTTT [CACACA_negctrl_site945]	6.36
TATTACATACATATCTGTACATATATTAATGCACAA [XGTACX_site3315]	9.95
TATTAATGCAAATGTTATATGTGCATACATAAATGT [CACACA_negctrl_site790]	10.9
AAAAATATTAAAAAAGGTACACAGCATATCTCTTTT [XGTACX_site65]	6.03
AAGAGTTAAAAAAATACACACATATAGATTTTTTTA [CACACA_site7018]	6.28
ATAAATAAAAAAGAAAGAAAGAAAGAAACAAACAAA [CACACA_negctrl_site1198]	6.43
AATACTTTTTTCTGTACACACTTGATTTACTATAAT [CACACA_site5544]	7.05

Sequence	gcPBM binding intensity (ln)
TCCAATTGTTCTAGTGTGCACATAAATAAATCTCAT	11
TTCATATTCGATAAAGTGCATTAATTTTATTTATCA	8.14
AAATTAATGTATATGTGAAGCAAGGGATGCGGCAGA [CACACA_negctrl_site406]	7.19
ATATATATATATATATAATATATAATATATATATAT [CACACA_negctrl_site96]	8.66
CAATTATTGTAATGCATGCACTGAATATAAAAAGAA	10.3
TTTATATGTATTAAGTGTACACATATAATGTATTTT [XGTACX_site16]	6.75
TTTTTTTCTTTTTACATACACACAAAAAAATAAAAT [CACACA_site580]	6.58
AGCACATTATTCAAAAGTACAAATAGGTATTGTATA [XGTACX_site6107]	6.01
TTGTTAATATGATAAAAGAGGAATATTCTCTTCCTA [GTGCAC_negctrl_site659]	5.92
AATATAAAAAAAAAAAAAAAAAAAAAAAAAAAGACA [CACACA_negctrl_site983]	5.97
AAATATTATGTACGCACACACATTTTTAATATATAA [CACACA_site3851]	7.2
TTATTTACAACTTCAAATTATGTGTAATACTACTAT [CACACA_negctrl_site741]	6.34
TAAAAAAAAACTCATGCACACAATATTATGAAAAAG [CACACA_site665]	8.31
TATTTATAAAAAGATTGTACATTTTTTATTATTGTA [XGTACX_site6016]	6.34
ATAAAACAACAAAGAAAATGAAAAAGTAAAAACATA [CACACA_negctrl_site596]	6.63
AAAAAAAAAAAAAAAACACACATATATCTATAATAT [CACACA_site6665]	6.67
CATTATTTATTTTAATGTACTTATTTTTAAATTGGT [XGTACX_site8038]	6.11
TATACAAAATATTTTACACACACATATATATACATA [CACACA_site2616]	7.09
